Experimental data: PubChem BioAssay AID686978 (National Center for Advancing Translational Sciences (NCATS), 2013)
About 64,000 (15%) of roughly 420,000 compounds were called active. The shares of active, inactive and inconclusive entries below differ from those in the screen. The call rests on the fitted dose curve; in most records, active means well fitted inhibition curve with a large enough effect; inconclusive means small, poorly fitted or top-dose-only effect; inactive means flat fitted curve, though single readings scatter. Potencies of inconclusive entries are left out as doubtful fits.

Test: qHTS for Inhibitors of human tyrosyl-DNA phosphodiesterase 1 (TDP1): qHTS in cells in absence of CPT; further: nearly all actives have a fitted effect of over 55% in size
Settings: DT40 Tdp1-/- hTDP1 cells, no CPT, ATP luminescence, 48 h; activity change, negative = growth inhibition: at 46.2 µM (top of the series) unless noted
How it was run: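 Chicken DT40 Tdp1-/- cells complemented with human TDP1, screened without camptothecin (DMSO vehicle only), 400 cells/well. Compounds pin-transferred, cells incubated at 37 °C for at least 48 hr. Growth read as ATP-dependent luminescence (CellTiter-Glo, 30 min at RT).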
On the % scale 0 is the no-effect control and ±100 the full control effect; potency means the concentration at half of the fitted maximal effect; tags describe the fitted curve by direction and shape.

| Structure (SMILES) | activity change, negative = growth inhibition | Potency |
| --- | --- | --- |
| Cc1ccc(S(=O)(=O)N2CC(C)N(C(=O)N3CCOCC3)C2)cc1 (stereo not drawn) | inactive: 1.26% | – |
| O=c1cc(/C=C/c2ccc([N+](=O)[O-])cc2)c2ccccc2[nH]1 | inactive: -6.34% | – |
| CC(O)(COc1ccccc1)c1ccc2c(c1)CN(C/C=C/c1ccco1)CCO2 (stereo not drawn) | – | inconclusive [inhibitor, single point] |
| CC(C(=O)NC1CCCC1)N1CCN(S(=O)(=O)c2ccccc2Cl)CC1 (stereo not drawn) | – | inconclusive [inhibitor, partial curve, poor fit] |
| CC(=O)Nc1ccc(-c2ccnc3c2CC(C)(C(=O)Nc2ccc(F)c(Cl)c2)O3)cc1 (stereo not drawn) | – | active: 23.1 µM |
| COc1ccc(Cn2ccnc2SCC(=O)Nc2ccc(F)cc2F)cc1 | – | active: 23.1 µM |
| COc1ccc(/C=C(/NC(=O)c2ccco2)C(=O)N2CCOCC2)cc1 | inactive: 22.3% | – |
| Cc1cnc(C)c(-c2cccc3c2OC(CNC(=O)/C=C/c2ccncc2)C3)n1 (stereo not drawn) | – | inconclusive [inhibitor, single point] |
| Cc1ccc(-n2c(=O)c3ccc(C(=O)NCc4ccco4)cc3n(Cc3ccc(Cl)cc3)c2=O)cc1 | – | active: 6.51 µM |
| Cn1c(=O)n(CCCOc2ccc(Br)cc2)c2ccccc21 | – | inconclusive [inhibitor, full curve] |
| CCCN(CC(=O)Nc1ccc(F)c(F)c1F)C(=O)c1ccc(=O)n(Cc2ccccc2)n1 | – | inconclusive [inhibitor, single point] |
| C/C(NCc1cccnc1)=C(\C#N)C(=O)NCc1ccccc1 | inactive: -7.23% | – |
| CSc1nc(Cl)c(Br)c(Nc2c[nH]c(=O)[nH]c2=O)n1 | – | inconclusive [inhibitor, single point] |
| Cc1ccc(SCC(=O)Nc2cccc(-c3nnc(-c4ccco4)o3)c2)cc1 | – | inconclusive [inhibitor, single point] |
| COc1ccc2[nH]c(=O)c(CN(C(=O)c3cccnc3)c3ccc(C)cc3C)cc2c1 | – | inconclusive [inhibitor, single point] |
| COc1ccc(-n2c(=O)c3ccc(C(=O)NCc4ccc(C)cc4)cc3n(Cc3ccc(C)cc3)c2=O)cc1 | inconclusive: -36% [inhibitor] | – |
| CCCc1cc(CNC(=O)C2CCC(=O)N(Cc3ccccc3OC)C2)on1 (stereo not drawn) | inactive: 0.905% | – |
| CCCCC(=O)Nc1nn(CCC)c2nc3ccccc3cc12 | – | inconclusive [inhibitor, single point] |
| Fc1ccc2nc3[nH]c4ccccc4c3nc2c1 | – | inconclusive [inhibitor, partial curve] |
| COCCNC(=O)c1ccc(CSCc2cccc(Cl)c2)o1 | – | inconclusive [inhibitor, single point] |
| CCC(C)[C@H](NC(=O)[C@@H]1Cc2ccccc2CN1)C(=O)NCc1ccc(C)cc1 (stereo partly drawn) | – | inconclusive [inhibitor, single point] |
| COc1ccc(-c2cc3ccc(OCC(N)=O)cc3oc2=O)cc1OC | – | inconclusive [inhibitor, single point] |

| Structure (SMILES) | activity change, negative = growth inhibition | Potency |
| --- | --- | --- |
| CN(c1ccccc1)S(=O)(=O)c1cccc(C(=O)NC2CCCC2)c1 | – | inconclusive [inhibitor, single point] |
| COc1ccc(CNC(=O)CCc2c(C)c3cc4c(C)coc4cc3oc2=O)cc1 | – | active: 14.6 µM |
| CCN(CC)S(=O)(=O)c1cccc(C(=O)NC(Cc2c[nH]c3ccccc23)c2nnc3n2CCC3)c1 (stereo not drawn) | – | inconclusive [inhibitor, single point] |
| COc1ccccc1N(C)S(=O)(=O)c1ccc(C(=O)Nc2cccc(Br)c2)cc1 | – | active: 16.4 µM |
| CC(C)(C)c1cc(C(=O)NN)n(Cc2ccc(Cl)cc2Cl)n1 | – | inconclusive [inhibitor, single point] |
| CC(CNc1nc2ccc(Cl)cc2n2cnnc12)c1ccccc1 (stereo not drawn) | – | inconclusive [inhibitor, single point] |
| N#Cc1cc2[nH]c3ccccc3c2[n+](-c2ccc([N+](=O)[O-])cc2)c1N | – | inconclusive [inhibitor, single point] |
| O=C(Nc1ccc2nc3n(c(=O)c2c1)CCCCC3)C(=O)N1CCN(c2ccc(F)cc2)CC1 | – | inconclusive [inhibitor, full curve, poor fit] |
| CCC(OC(=O)c1cccs1)C(=O)NCc1ccc(C)cc1 (stereo not drawn) | inactive: 3.51% | – |
| CCOc1ccccc1-n1c(SCC(=O)Nc2nccs2)nnc1-c1ccoc1C | – | inconclusive [inhibitor, single point] |
| Cc1ccccc1NC(=S)N(Cc1ccccn1)Cc1ccccc1Cl | – | inconclusive [inhibitor, single point] |
| CCOC(=O)c1ccccc1NS(=O)(=O)c1c(C)nc2sccn2c1=O | – | inconclusive [inhibitor, single point] |
| CCN(CC)c1ccc(NC(=O)COC(=O)CCC(=O)c2ccc(F)cc2)cc1 | inactive: -1.34% | – |
| COc1cccc(/C=C2/SC(=S)N(CC(=O)Nc3nnc(C)s3)C2=O)c1 | inactive: 11.3% | – |
| O=C(Nc1ccc(F)cc1F)c1cccc(C(=O)Nc2ccc(F)cc2F)n1 | – | inconclusive [inhibitor, single point] |
| O=C1CC(N2CCN(c3ccc(Cl)cc3)CC2)C(=O)N1c1ccc(F)cc1 (stereo not drawn) | inactive: 4.76% | – |
| Cc1ccsc1C(=O)NCCC(c1ccccc1)c1ccccc1 | – | inconclusive [inhibitor, partial curve] |
| Cc1cc(C)n2nc(C(=O)Nc3ccc4c(c3)OCO4)nc2n1 | inconclusive: -31.6% [inhibitor] | – |
| Cc1nc2nc(SCC(=O)N(Cc3ccccc3)C(C)C)nn2c(C)c1Cc1ccccc1Cl | – | inconclusive [inhibitor, single point] |
| O=C(Nc1cccc(S(=O)(=O)NCc2ccco2)c1)c1cc(-c2ccccc2)nc2ccccc12 | – | active: 23.1 µM |
| CCCc1cc(=O)[nH]c(SCc2nc3ccc([N+](=O)[O-])cc3[nH]2)n1 | – | inconclusive [inhibitor, single point] |
